# Test results from PubChem BioAssay AID686979 (National Center for Advancing Translational Sciences (NCATS), 2013).
# About 50,000 (12%) of roughly 420,000 compounds were called active. This list was built around the results that the source calls inconclusive (neither active nor inactive); the mix of calls is not that of the screen. Calls follow the shape of the dose curve; as a rule, active = well fitted inhibition curve with a large enough effect; inconclusive = small, poorly fitted or top-dose-only effect; inactive = flat fitted curve, though single readings scatter. No potency is given beside an inconclusive call; the fits are too rough.
# Experiment: qHTS for Inhibitors of human tyrosyl-DNA phosphodiesterase 1 (TDP1): qHTS in cells in presence of CPT; also: nearly all actives have a fitted effect of over 55% in size
# Conditions: chicken DT40 Tdp1-/-;hTDP1 cells + 20 nM CPT, ATP luminescence, 48 h; activity change, negative = growth inhibition: at 46.2 µM (top of the series) unless noted
# Outline: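 Chicken DT40 Tdp1-/- cells stably complemented with human TDP1 were seeded at 400 cells/well in medium containing 20 nM camptothecin, exposed to pin-transferred compounds, and grown at 37 °C for at least 48 hr. Viability was read as ATP luminescence.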
# % is scaled to controls: 0 for no effect and ±100 for the full control effect; potency is read from the fitted curve at half-maximal effect; tags tell the direction and shape of the fitted curve.
SMILES,Potency,"activity change, negative = growth inhibition"
COc1ccc(N2CCN(C(=O)CCC(=O)c3cc(C)sc3C)CC2)cc1,"inconclusive [inhibitor, single point]",–
COc1ccccc1Cn1c(CO)nc2ccccc21,–,inactive: -7.97%
CN1CCN(C(=O)c2cccn(Cc3c(Cl)cccc3Cl)c2=O)CC1,–,inactive: 5.75%
COc1cc(-c2ccno2)ccc1S(=O)(=O)N1CCN(c2cc(C)ccc2C)CC1,"inconclusive [inhibitor, single point]",–
CCOC(=O)[C@H]1[C@H]2COc3cc(OC)ccc3[C@@H]2N2C(=O)c3c(C)cc(C)cc3NC(=O)[C@@]12C,"inconclusive [inhibitor, single point]",–
C/C(=N\Nc1ccc(S(N)(=O)=O)cc1[N+](=O)[O-])c1ccco1,–,inactive: -14.8%
COCCC(=O)N1CCc2ccc(NC(=O)c3ccc(C(F)(F)F)cc3)cc2C1,"inconclusive [inhibitor, single point]",–
CCO[C@H](Cc1ccc(OCCc2ccc(OS(C)(=O)=O)cc2)cc1)C(=O)O,–,inactive: -5.53%
O=C(O)c1cc2cc(Cl)cc(Cl)c2oc1=O,"inconclusive [inhibitor, single point]",–
COc1cc(O)ccc1CN1CCc2nnc(C(C)NC(=O)c3cc(F)ccc3F)n2CC1 (configuration not stated),–,inactive: 5.4%
Cc1c(C(=O)Nc2cccc(-c3nnc4n3CCCCC4)c2)oc2ccccc12,active: 14.6 µM,–
O=C(Cc1c(Cl)cccc1Cl)NC1CC1,"inconclusive [inhibitor, single point]",–
Cc1ccc(C2=Nc3ccc(Br)cc3C(c3ccncc3)=NN2)cc1,"inconclusive [inhibitor, single point]",–
O=C(CSc1nccc(=O)[nH]1)N1CCCc2ccccc21,"inconclusive [inhibitor, single point]",–
COc1cccc(N2CC(NC(=O)C(c3ccccc3)c3ccccc3)CC2=O)c1 (configuration not stated),"inconclusive [inhibitor, single point]",–
COc1ccc(OCCCC(=O)Nc2cc(Cl)ccc2-n2cncn2)cc1,–,inactive: -3.96%
c1cnc2cc3c(cc2n1)C1CNCC3C1,"inconclusive [inhibitor, single point]",–
CCCn1c(SCN2C(=O)c3ccccc3C2=O)nc2cc(Cl)ccc2c1=O,active: 20.6 µM,–
COc1ccc(-c2ccc(=O)n(CC(=O)NCC3COCCO3)n2)cc1 (configuration not stated),–,inactive: -27.2%
O=C(c1ccc(CSc2ccccc2)cc1)N1CCN(c2ccccc2)CC1,"inconclusive [inhibitor, single point]",–
Cc1ccc(S(=O)(=O)N2CC3(O)CN(C(=O)OC(C)C)N(C(=O)OC(C)C)CC3(OC(=O)NCc3ccccc3F)C2)cc1 (configuration not stated),"inconclusive [inhibitor, single point]",–
Cc1ccccc1Oc1ncnc(N)c1[N+](=O)[O-],–,inactive: 5.51%
Cn1nc(N)c2ncc(C(Cl)(Cl)Cl)nc21,"inconclusive [inhibitor, single point]",–
O=C1c2ccccc2C(=O)N1c1cccc(N2C(=O)c3ccccc3C2=O)n1,–,inactive: 11.6%

SMILES,Potency,"activity change, negative = growth inhibition"
CC1(C)OC(=O)C=C(CC2NS(=O)(=O)OC3CCCCC23)O1 (configuration not stated),–,inactive: -16.6%
Cn1cc(C(=O)NCCc2ccccc2)c(=O)c2cc(S(=O)(=O)N3CCOCC3)ccc21,"inconclusive [inhibitor, single point]",–
CN(CCCNC(=O)C1CCC(CNS(=O)(=O)c2ccccc2)CC1)Cc1ccccc1 (configuration not stated),"inconclusive [inhibitor, single point]",–
COC(=O)c1c(NC(=O)CSc2nnc(C)c(=O)[nH]2)sc(C)c1C,–,inactive: 11%
COc1ccccc1NC(=O)c1oc2ccccc2c1NC(=O)c1cc(OC)c(OC)c(OC)c1,"inconclusive [inhibitor, full curve, poor fit]",–
COc1ccccc1/C=C/c1nc(C#N)c(N2CCCCC2)o1,–,inactive: -72.2%
Cc1nc2nncn2c(N2CCN(c3ccccc3)CC2)c1C,"inconclusive [inhibitor, single point]",–
NC(=S)NN=C1CCCCCCCCC1,"inconclusive [inhibitor, single point]",–
CCc1nc(SCC(=O)c2ccccc2)c2ccccc2n1,"inconclusive [inhibitor, single point]",–
CCCn1c(N)c(C(=S)NC(=O)C2CC2)c(=O)n(C)c1=O,–,inactive: -19%
Cc1cc(CNC(=O)COc2ccc(F)cc2)c2ccccc2n1,"inconclusive [inhibitor, single point]",–
O=C1C(=O)N(CCN2CCCCC2)c2ccccc21,–,inactive: -28%
COCCNC(=O)Cc1ccc(NC(=O)N2CCCCc3ccccc32)cc1,–,inactive: 0.285%
CC1(C)CC(=O)c2cnc(N3CCc4ccccc4C3)nc2C1,"inconclusive [inhibitor, single point]",–
O=S(=O)(NC1CC1)c1ccc(S(=O)(=O)N2CCCC(c3nc(-c4cccnc4)no3)C2)cc1 (configuration not stated),"inconclusive [inhibitor, partial curve]",–
Cc1ccc(OCCOc2ccc(Cl)cc2Cl)c([N+](=O)[O-])n1,"inconclusive [inhibitor, single point]",–
O=C(NCc1ccc(F)cc1)c1ccc(CSCc2cccc(Cl)c2)o1,"inconclusive [inhibitor, single point]",–
COc1cccc(C(=O)Nc2cccc3cccnc23)c1OC,–,inactive: -4.52%
Cc1ccc(C(=O)CNc2cc(C)ccc2C)cc1,"inconclusive [inhibitor, single point]",–
O=C1c2ccccc2C(=O)C1(c1ccccc1)N1CCN(c2cccc(Cl)c2)CC1,"inconclusive [inhibitor, single point]",–
Cc1ccc(N2CC(NC(=O)/C=C\c3ccc4c(c3)OCO4)CC2=O)cc1C (configuration not stated),"inconclusive [inhibitor, single point]",–
CCOc1ccc(C(c2c(NC(=O)c3ccco3)sc(C)c2C)N2CCOCC2)cc1 (configuration not stated),active: 23.1 µM,–
[O-]/C(=C(\C(=S)NCc1ccc2c(c1)OCO2)[n+]1ccccc1)c1ccc(Cl)s1,"inconclusive [inhibitor, single point]",–
